Results published in ChEMBL document CHEMBL1157539, “Thousands of chemical starting points for antimalarial lead identification” (Nature, 2010).
Over roughly 13,000 compounds, “IFI” has its median near 4; the highest 2% begin near 17. This is one part of the list.

assay: GSK_TCMDC: Inhibition Frequency Index (IFI). The number of non-kinase HTS assays where a compound showed > 50 % inhibition, expressed as a percentage of the number of such assays in which the compound was tested (-0 is zero); format: functional

Structure (SMILES)	IFI [%]
Cc1ccn2c(N(Cc3ccccc3)C(=O)c3ccc(Cl)c(Cl)c3)c(-c3ccccc3)nc2c1	8.05
Cc1cccc2nc(-c3ccc(-c4cccc(NC(=O)NCc5cccc(F)c5)c4)s3)[nH]c12	2.02
CC(=O)Nc1ncc(C(=O)Nc2cccc(-c3cccc(-c4nc5cccc(C)c5[nH]4)c3)c2)s1	2.78
Cc1ccc(-c2cncc(-c3cc(NC4CCN(Cc5ccccc5)CC4)nc(-c4ccccc4)n3)c2)cc1	4.35
Cc1ccc(C(=O)Nc2cc(C(F)(F)F)cc(C(F)(F)F)c2)cc1[N+](=O)[O-]	0
CCCCCCOc1ccc(C(=O)N[C@H]2CCN(CCCCCNC(=O)/C=C/c3ccc(Cl)c(Cl)c3)C2)cc1	4.58
O=C(Nc1cccc(CN2CCCN(Cc3ccc(O)cc3)CC2)c1)c1ccc(-c2ccccc2)cc1	9.46
O=C(Nc1ccc(Cl)cc1)c1cccc(S(=O)(=O)NC2CCN(CC3CCCCC3)CC2)c1	8.74
Nc1cc(/C=C/c2ccc([N+](=O)[O-])s2)nc2ccccc12	19.2
CCC(C)NCC(O)(c1ccc(Cl)cc1)c1ccc(Cl)cc1 (centres undefined)	2.78
Clc1ccc(CNCCCCCCNCc2ccc(Cl)cc2)cc1	11.3
CN(C)CCC(O)C=C(c1ccc(Cl)cc1)c1ccc(Cl)cc1 (centres undefined)	4.69
Cc1ccc2ccncc2c1N	5.93
O=C(NCCCCN1CCCC2c3cccc(O)c3CCC21)c1ccc(-c2ccccc2)cc1 (centres undefined)	4.48
O=C(Nc1cccc(-c2cccc(-c3nc4ccccc4[nH]3)c2)c1)c1cccnc1	7.34
C=CCOc1ccc(CNC2CCN(Cc3ccccc3)CC2)cc1Br	5.88
O=C(NCc1cccc(F)c1)Nc1ccc(-c2cccc(-c3nc4cc(F)ccc4[nH]3)c2)cc1	4.95
O=C(Nc1cccc(F)c1)NC1CCN(CCCCCNC(=O)C2CC2c2ccc(Cl)c(Cl)c2)CC1 (centres undefined)	11.5
CCOC(=O)C1=C(C)NC(Cn2ccnc2)=C(C(=O)OCC)C1c1ccc(C(C)(C)C)cc1 (centres undefined)	0.71
c1ccc(CN2CCCN(c3ccc4c(c3)CCN(Cc3ccc(-c5ncc[nH]5)cc3)CC4)CC2)cc1	2.54

Structure (SMILES)	IFI [%]
O=C(COc1ccc(Cl)c(Cl)c1)NCCCCCN1CCCN(C(=O)Nc2ccc(Cl)c(Cl)c2)CC1	14.9
Clc1ccc(-c2ccc(C=NNc3nc(=Nc4ccccc4)[nH]c(=Nc4ccccc4)[nH]3)o2)cc1Cl	1.56
Oc1ccc2ccccc2c1CNCC1CCCCC1	3.62
CCOC(=O)c1ccc(NC(=O)Nc2cccc(-c3ccc(-c4nc5ccccc5[nH]4)cc3)c2)cc1	6
Cc1cc(Nc2cccc(C#N)c2)nc(Nc2ccccc2C)n1	3.17
CCCNCc1ccc(-c2ccc(CN(C(=O)c3nn(-c4ccccc4)nc3C)C3CC3)cc2)nc1	5.15
OCCN1CCN(c2ccc(Nc3ccnc4cc5ccccc5cc34)cc2)CC1	7.38
CN(CCN(C)C(=O)NCc1ccccc1)C(=O)NCc1ccccc1	-0
COc1cc(C(=O)NC2CCN(Cc3ccccc3)CC2)ccc1-c1nc2c(Cl)cc(C(F)(F)F)cc2[nH]1	0.75
CC(C)C[C@@H](CNC[C@H](CC(C)C)NC(=O)OC(C)(C)C)NC(=O)OC(C)(C)C	2.42
N=C(N)Nc1ccc(Cc2ccc(NC(=N)N)cc2)cc1	0.71
CCN1CCN(c2cc(C)c3cc(NC(=O)c4cccc(OC)c4)ccc3n2)CC1	1.34
Cn1cncc1C(=O)Nc1cccc(-c2cccc(-c3nc4ccccc4[nH]3)c2)c1	1.79
Cc1ccc(NC(=O)NC2CCN(c3ccnc4ccccc34)C2)cc1 (centres undefined)	1.54
CCCC1N=C(N)N=C(N)N1c1ccc(OC)cc1 (centres undefined)	-0
CN(C)CCN(C)Cc1ccc(-c2ccc3c(Nc4ccc(Oc5ccccn5)cc4)ccnc3c2)o1	4.44
Cc1ccccc1/N=C1\NC(=S)N(c2cccc(C(F)(F)F)c2)C12CCC(C(C)(C)C)CC2 (centres undefined)	0
COc1ccc(-c2ccc(NC(=O)c3cccc(C#N)c3)cc2)cc1CN1CCCN(C)CC1	4.95
Fc1ccc2[nH]c(-c3cccc(-c4cccc(CN5CCN(c6cnccn6)CC5)c4)c3)nc2c1	3.92
CCn1c(CN2CCN(Cc3ccccc3)CC2)nc2cc(NC(=O)c3cccs3)ccc21	3.45

Structure (SMILES)	IFI [%]
Fc1ccc(NC(=S)NCCc2ccccc2)cc1	2.19
O=C(c1ccc(Br)o1)N1N=C(c2cccs2)CC1c1ccc(Br)cc1 (centres undefined)	1.41
O=C(Nc1ccc(Oc2ccc(OC(F)(F)F)cc2)cc1)c1ccco1	5.22
COc1ccc2nccc([C@@H](O)CN3CCC(CO)(NCc4cc5ccccc5o4)CC3)c2c1	4.44
CCOC(=O)c1ccc(Nc2cc(Nc3ccc(C(=O)OCC)cc3)nc(C)n2)cc1	0.75
Cc1ccc(C(=O)NCC2CCN(c3ccc(C(F)(F)F)cc3NC(=O)c3ccco3)CC2)cn1	3.03
COc1cc2nc(NCc3cccc(CNC(=O)c4ccc(-c5ccc(C(C)=O)cc5)cc4)c3)nc(N)c2cc1OC	8.7
N=c1ccn(CC(=NO)c2ccc(Cl)c(Cl)c2)cc1	3.68
CN(C)Cc1cccc(-c2ccc3ccnc(N)c3c2)c1	4.42
c1ccc(OCCCCN2CCCCC2)cc1	1.67
CC(C)(C)OC(=O)N(Cc1cc(-n2nnnc2C(F)(F)F)ccc1O)[C@H]1CCCN(C(=O)OC(C)(C)C)[C@H]1c1ccccc1	5.11
O=C1OC2(CN1CC1CCN(Cc3ccc(O)c(Cl)c3)CC1)c1ccccc1-c1ccccc12	5.47
CCCNC(=O)C1CCN(C(c2ccc(Cl)cc2)c2ccc(Cl)cc2)CC1	4.05
O=C(Nc1ccc(S(=O)(=O)N2CCCC2)cc1)c1cc(-c2cccnc2)nc2ccc(Cl)cc12	0
CCN(CC)CCCN(Cc1ccc(-c2ccc(C(F)(F)F)cc2)cc1)C(=O)Cn1c(SCc2cccc(F)c2F)cc(=O)c2ccccc21	7.14
O=C(Nc1ccc(Cl)cc1C(=O)Nc1cccc(F)c1)c1ccc([N+](=O)[O-])cc1	1.43
CCN1CCN(c2cc(C)c3cc(NC(=O)c4ccc(N(CC)CC)cc4)ccc3n2)CC1	5.26
COc1ccnc(NCCCNCc2cn(S(=O)(=O)c3ccccc3)c3ccccc23)c1	5.3
O=C(/C=C/c1ccc(C(F)(F)F)cc1)NCCCCCN1CCCN(C(=O)Nc2ccc(Cl)c(Cl)c2)CC1	20.4
